# Experimental data reported in the supplement of paper PMC5655136.
# Read counts after selection give these values, which scatter widely.
# Test system: NB7
# Assay: fold depletion of shRNA, plasmid library share / infected cells without Dox share (9 days) (ratio); higher = more depleted after infection (more toxic, leaky expression from a Tet-inducible vector; NB7 is a neuroblastoma line without caspase-8)
# [1] = shRNA pool: CD95L ORF + CD95L 3'UTR + Venus libraries
# [2] = shRNA pool: CD95 ORF + CD95 3'UTR + Venus libraries
# 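Also: shRNA barcodes quantified by deep sequencing of PCR amplicons from cellular DNA, counts expressed as percent of each subpool, ratio averaged over two biological duplicates.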
sequence,measurement,setting,value
GTTTTGGGGACTCATTTCATT,fold depletion of shRNA,[1],30.9
GTTTTTCGGCTTATATAAGCT,fold depletion of shRNA,[1],3.36
GTTTTTTACTGGGTACATTTT,fold depletion of shRNA,[2],2.28
TAAAAAGTATATGTTAGGATA,fold depletion of shRNA,[1],0.603
TAAAACCTGCTACAAATGGCA,fold depletion of shRNA,[2],11.5
TAAAAGTACGTAATTAAATAA,fold depletion of shRNA,[2],1.65
TAAAATAGATTCTTATTTTTC,fold depletion of shRNA,[2],0.845
TAAAATATAGGTAAAAGTACG,fold depletion of shRNA,[2],1.99
TAAAATCATCATCTGGATTTA,fold depletion of shRNA,[2],1.81
TAAAATCTAGTTGGGAAAACA,fold depletion of shRNA,[2],1.54
TAAACCAAACTTTTTTTGTAA,fold depletion of shRNA,[2],1.45
TAAACGGCCACAAGTTCAGCG,fold depletion of shRNA,[1],1.16
same,fold depletion of shRNA,[2],1.2
TAAACTGCACCCGGACCCAGA,fold depletion of shRNA,[2],1.93
TAAACTGTGAAGATAGTTATA,fold depletion of shRNA,[2],0.72
TAAACTTTGTTTATAACTCTG,fold depletion of shRNA,[2],0.93
TAAAGAACTTCCATTTATGGA,fold depletion of shRNA,[2],1.38
TAAAGAGAGAATGTAGATATT,fold depletion of shRNA,[1],0.531
TAAAGAGGCTGAAAGAGGCCA,fold depletion of shRNA,[1],0.279
TAAAGGCTTTGTTCGAAAGAA,fold depletion of shRNA,[2],1.02
TAAAGTATATGTATTTGAGTG,fold depletion of shRNA,[2],0.988
TAAATAAGGCTCTACCTCAAA,fold depletion of shRNA,[2],0.467
TAAATACTGCTTGGTTTTTTA,fold depletion of shRNA,[2],1.42
TAAATATATCACCACTATTGC,fold depletion of shRNA,[2],0.983
TAAATATCTTTGAAAGTTTGT,fold depletion of shRNA,[2],0.97
TAAATATTTATGTAGATGTGC,fold depletion of shRNA,[1],1.15
TAAATGCATATCCTGAGCCAT,fold depletion of shRNA,[1],1.61
TAAATGTAAACTGTGAAGATA,fold depletion of shRNA,[2],0.765
TAAATGTGAATTTTAAGAAAT,fold depletion of shRNA,[2],1.24
TAAATTACCTCTGATAATTCT,fold depletion of shRNA,[2],1.44
TAAATTATAATGTTTGACTAT,fold depletion of shRNA,[2],1.39
TAAATTTATCTGATGTTGACT,fold depletion of shRNA,[2],0.985
TAACACAGCATGTGTATTTCC,fold depletion of shRNA,[1],1.38
TAACAGATAAGCAAGAGAGAT,fold depletion of shRNA,[1],1.66
TAACAGGCAAGTCCAACTCAA,fold depletion of shRNA,[1],0.36
TAACATATGATTCTGTAGTAT,fold depletion of shRNA,[2],1.74
TAACCCCACTCTATGAATCAA,fold depletion of shRNA,[2],1.41
TAACTCACCTCTCAAGGTGGG,fold depletion of shRNA,[1],0.693
TAACTCTACTGTATGTGAACA,fold depletion of shRNA,[2],1.29
TAACTCTGAGAAGATCATATT,fold depletion of shRNA,[2],1.69
TAACTGCTCTCAGAGAAAGTA,fold depletion of shRNA,[2],4.74
TAAGAAATAATATTTATATTT,fold depletion of shRNA,[2],1.06
TAAGAAGACATGAACCAAGTG,fold depletion of shRNA,[1],0.395
TAAGAAGGGTGGCCTTGTGAT,fold depletion of shRNA,[1],13.9
TAAGATTATGCTCTGGCATCT,fold depletion of shRNA,[2],1.1
TAAGATTCTCCTTACTACTAT,fold depletion of shRNA,[2],0.821
TAAGATTTAAGATTCTCCTTA,fold depletion of shRNA,[2],2.02
TAAGCAAGAGAGATGTTTTGG,fold depletion of shRNA,[1],0.447
TAAGCCCTGTCCTCCAGGTGA,fold depletion of shRNA,[2],1.05
TAAGCTAAAGAGGCTGAAAGA,fold depletion of shRNA,[1],2.55
TAAGGGATGGAAAAGGAAGAC,fold depletion of shRNA,[1],0.271
TAAGTACCCAAATAGGAGTGT,fold depletion of shRNA,[2],3.04
TAAGTCAAGTTAAAGGCTTTG,fold depletion of shRNA,[2],1.09
TAATAAAAAGTATATGTTAGG,fold depletion of shRNA,[1],0.51
TAATAAATATTTATGTAGATG,fold depletion of shRNA,[1],0.9
TAATAAGCTAAAGAGGCTGAA,fold depletion of shRNA,[1],11.1
TAATAGCTGGCTGTAAATACT,fold depletion of shRNA,[2],3.07
TAATAGTGCTTAAAAATCATT,fold depletion of shRNA,[1],1.41
TAATATAATAAATATTTATGT,fold depletion of shRNA,[1],1.3
TAATATCTCATGATTCTGCCT,fold depletion of shRNA,[2],3.56
TAATATTTATATTTCTGTAAA,fold depletion of shRNA,[2],1.08
TAATCAGTGTATGTTAGTACA,fold depletion of shRNA,[2],1.56
TAATGATGTTTTCCTATAATA,fold depletion of shRNA,[1],0.567
TAATGCACCCCCAAACATGGA,fold depletion of shRNA,[2],1.12
TAATGCCCAAGTGACTGACAT,fold depletion of shRNA,[2],1.27
TAATGTCCCATGTAAAACCTG,fold depletion of shRNA,[2],6.35
TAATGTTTGACTATTATATAT,fold depletion of shRNA,[2],0.729
TAATTAAATAATGTTTTTGGT,fold depletion of shRNA,[2],1.8
TAATTCTAGAGATTTTACCAT,fold depletion of shRNA,[2],2.02
TAATTGTTTGGGTGAAGAGAA,fold depletion of shRNA,[2],5.48
TACAAATGGCAGCTTATACAT,fold depletion of shRNA,[2],0.788
TACAAATGTCTATCCACAGGC,fold depletion of shRNA,[2],1.03
TACAACAGCCACAACGTCTAT,fold depletion of shRNA,[1],4.85
same,fold depletion of shRNA,[2],1.88
TACAACTACAACAGCCACAAC,fold depletion of shRNA,[2],5.4
TACAAGACCCGCGCCGAGGTG,fold depletion of shRNA,[1],1.46
same,fold depletion of shRNA,[2],1.7
TACAATATTTCAATTGTGAAT,fold depletion of shRNA,[2],0.717
TACACAGACAAAGCCCATTTT,fold depletion of shRNA,[2],0.567
TACACTCATCTTAGTGCCTGA,fold depletion of shRNA,[1],3.44
TACAGGCACCGAGAATGTTGT,fold depletion of shRNA,[1],0.811
